# Some of the results follow. Shown are side measurements of this screen, not its main read-out; they come without a call.
# Experiments:
# Test in all cases: Primary Screen for Target Class Profiling of Small Molecule Inhibitors of Methyltransferases
# [1] = target: Glycine N-methyltransferase (Homo sapiens) (UniProt Q14749); settings: purified enzyme, MTase-Glo SAH luminescence; measured here: GNMT inhibition; at 40 µM; stronger effect = lower value
# Summary of the method: (§1)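 Each enzyme was reacted with SAM and its substrate, with compounds tested once at 40 uM; SAH formed was read by MTase-Glo luminescence.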
# [2] = target: Guanidinoacetate N-methyltransferase (Homo sapiens) (UniProt Q14353); settings: purified enzyme, MTase-Glo SAH luminescence; measured here: GAMT inhibition; at 40 µM; stronger effect = lower value
# Summary of the method: as §1
# [3] = target: Histamine N-methyltransferase (Homo sapiens) (UniProt P50135); settings: purified enzyme, MTase-Glo SAH luminescence; measured here: HNMT inhibition; at 40 µM; stronger effect = lower value
# Summary of the method: as §1
# [4] = target: Nicotinamide N-methyltransferase (Homo sapiens) (UniProt P40261); settings: purified enzyme, MTase-Glo SAH luminescence; measured here: NNMT inhibition; at 40 µM; stronger effect = lower value
# Summary of the method: as §1
# [5] = target: Phenylethanolamine N-methyltransferase (Homo sapiens) (UniProt P11086); settings: purified enzyme, MTase-Glo SAH luminescence; measured here: PNMT inhibition; at 40 µM; stronger effect = lower value
# Summary of the method: as §1
# On the % scale 0 is the no-effect control and ±100 the full control effect.
SMILES,"activity change, negative = inhibition [1] [%]","activity change, negative = inhibition [2] [%]","activity change, negative = inhibition [3] [%]","activity change, negative = inhibition [4] [%]","activity change, negative = inhibition [5] [%]"
O=C(NCCc1ccccc1)N1Cc2ccccc2-n2cccc2C1c1cc(F)cc(F)c1 (configuration not stated),13.2,0.391,7.88,7.68,11.5
CC1=NOC2(CCN(Cc3cc(C)on3)C2)C1 (configuration not stated),-4.65,-2.63,-1.58,-5.33,7.83
Cc1cccc(NC(=O)N2Cc3ccccc3-n3cccc3C2c2ccccc2)c1 (configuration not stated),7.1,0,7.39,8.4,5.05
CCn1cc(CN2CCN(C(=O)COc3ccccc3)CC2)ccc1=O,-11.1,-5.27,-1.02,-1.08,-14
O=c1[nH]c2ccccc2n1CCCN1CCC(n2c(=O)[nH]c3cc(Cl)ccc32)CC1,-11.3,13.9,-0.042,-10.7,5.67
C[N+](C)(C)CC(=O)O,2.75,8.48,8.9,-7.75,-4.02
COc1ccc(NC(=O)N2Cc3ccccc3-n3cccc3C2c2ccccc2Cl)cc1OC (configuration not stated),2.08,0,-1.34,0.307,3.21
COc1ccc(CCNCc2ccc(OC)c3ccccc23)cc1,4.39,11.6,-10.1,-43,-3.64
CCC1c2cccn2-c2ccccc2CN1C(=O)Nc1ccc(Cl)cc1 (configuration not stated),2.11,0.356,3.81,2.21,5.5
C[C@@]12C[C@@H](c3ccoc3)OC(=O)C1CC[C@]1(C)[C@H]2[C@H]2C=C[C@]1(O)C(=O)O2 (some centres not stated),4.07,5.68,5.59,-7.93,6.41
CCCN1CCC[C@@H]2Cc3nc(N)ncc3C[C@H]21,-6.39,6.05,0.71,-6.92,7.35
CCOC(=O)c1cccc(NC(=O)N2Cc3ccccc3-n3cccc3C2CC)c1 (configuration not stated),0.794,0.875,2.4,1.86,3.02
O=C(N1CCOCC1)N1CCN(c2ccc(Cl)cc2)CC1,-6.62,-0.297,6.09,-15.6,1.18
Cc1ccc(NC(=O)N2Cc3ccccc3-n3cccc3C2c2ccccc2)c(C)c1 (configuration not stated),-0.66,0.645,-2.01,-3.31,-3
O=C(Nc1ccccc1F)N1Cc2ccccc2-n2cccc2C1c1cc(F)cc(F)c1 (configuration not stated),9.94,2.37,7.36,11.7,10.4
COc1ccc(NC(=O)N2Cc3ccccc3-n3cccc3C2c2cc(F)cc(F)c2)cc1 (configuration not stated),14,0.233,12,0.586,9.27
COc1ccc(C2c3cccn3-c3ccccc3CN2C(=O)Nc2cccc(C)c2C)cc1OC (configuration not stated),4.59,0.259,-1.06,-2.76,2.39
Cc1ccccc1-n1c(Cn2cnc3c(N)ncnc32)nc2cccc(C)c2c1=O,-6.6,-6.14,0.783,-22.6,-2.52
CN(N=O)c1ccc(O)c(O)c1,-76,-24,-14.3,-18.6,-41
CC(C)=CCC[C@]1(C)C=Cc2c(O)c3c(c(CC=C(C)C)c2O1)O[C@]12C(=C[C@@H]4CC1C(C)(C)O[C@@]2(C/C=C(/C)C(=O)O)C4=O)C3=O,-7.84,,-7.34,,

SMILES,"activity change, negative = inhibition [1] [%]","activity change, negative = inhibition [2] [%]","activity change, negative = inhibition [3] [%]","activity change, negative = inhibition [4] [%]","activity change, negative = inhibition [5] [%]"
CC(=O)c1ccc(NC(=O)OC[C@H]2C[C@@H]3CCN2C[C@@H]3c2cc(C3CCCC3)nc(-c3ccncc3)n2)cc1,-13.1,-2.54,-14.1,-45.8,1.5
CC(Cc1ccc(O)cc1)NCC(O)c1cc(O)cc(O)c1 (configuration not stated),-5.09,1.51,-13.6,-6.81,3.59
COc1ccc(C2c3cccn3-c3ccccc3CN2C(=O)NCc2ccc(C)cc2)cc1 (configuration not stated),2.63,3.53,-4.81,-8.06,-4.28
CCOC(=O)CNC(=O)N1Cc2ccccc2-n2cccc2C1c1ccc(OC)c(OC)c1 (configuration not stated),7.8,0.069,1.9,3.09,6.02
C=C[C@H]1CN2CC[C@H]1C[C@@H]2[C@@H](O)c1ccnc2ccccc12,-1.91,-1.4,0.336,-13.8,-28.7
Cn1cnc(CCN)c1,3.88,14.2,-23,-0.852,11
CC(=O)O[C@H]1CC[C@H]2[C@@H]3CC[C@H]4CC(=O)C=C(C)[C@]4(C)[C@H]3CC[C@]12C,-22.1,-5.73,0.778,-28.1,-2.34
CCOc1ccc(NC(=O)N2Cc3ccccc3-n3cccc3C2c2ccc(F)cc2)cc1 (configuration not stated),-1.5,5.14,2.12,0.091,8.71
CC(C)[C@H]1OC(=O)[C@H](Cc2ccccc2)N(C)C(=O)[C@@H](C(C)C)OC(=O)[C@H](Cc2ccccc2)N(C)C(=O)[C@@H](C(C)C)OC(=O)[C@H](Cc2ccccc2)N(C)C1=O,-4.23,-7.91,8.26,-22.4,-15.8
C[C@]12CC[C@H](O)C[C@H]1CC[C@@H]1[C@@H]2[C@H](O)C[C@]2(C)[C@@H](c3ccc(=O)oc3)CC[C@]12O,1.27,6.52,5.04,-5.26,5.53
COC(=O)C1(C)CCC(=O)C2(C)c3c(O)cc(C(C)C)cc3C(O)C(OC(C)=O)C12 (configuration not stated),4.93,4.57,10.6,-6.48,-0.978
CCc1ccc(C2c3cccn3-c3ccccc3CN2C(=O)Nc2ccccc2C(=O)OC)cc1 (configuration not stated),14.1,2.37,7.81,8.63,9.92
CCc1ccccc1NC(=O)N1Cc2ccccc2-n2cccc2C1c1cccs1 (configuration not stated),-0.126,0,4.89,1.27,7.37
CSc1ccc(-c2ccc(=O)n3c2[C@@H]2C[C@@H](CN(C(=O)Nc4cccc(F)c4)C2)C3)cc1,-8.65,-12.3,-6.57,-18.3,-18.9
C=CC/C=C\C/C=C\CCCCCCCc1cc(O)cc(O)c1,-3.9,2.94,5.28,-12.2,-8.41
CCOc1ccc(C2c3cccn3-c3ccccc3CN2C(=O)Nc2cccc(C(F)(F)F)c2)cc1 (configuration not stated),0.804,1.95,10,5.7,8.07
CCN1CCN(c2ccc(Cl)nn2)C(=O)C1,-2.18,-2.01,-0.097,-5.8,1.93
CCc1ccc(C2c3cccn3-c3ccccc3CN2C(=O)NCc2cccc(OC)c2)cc1 (configuration not stated),13,0,6.44,1.73,6.01
COc1ccc(C2c3cccn3-c3ccccc3CN2C(=O)NCc2ccc(F)cc2)cc1OC (configuration not stated),6.29,-1,-1.34,-7.76,-0.91
